Laboratory results taken from PubChem BioAssay AID1466 (National Center for Advancing Translational Sciences (NCATS), 2008).
The campaign covered roughly 200,000 compounds. About 10 (0.005%) were called active. The inconclusive results got no clear call from the source; some entries with a clear call stand among them for comparison. Calls come from the whole dose curve; as a rule, active = well fitted inhibition curve with a large enough effect; inconclusive = small, poorly fitted or top-dose-only effect, or effect the other way, or another doubt; inactive = no such curve, though single readings can be large or run the other way. Potencies of inconclusive entries are left out as doubtful fits.

The compounds below were run against Lysosomal alpha-glucosidase (Homo sapiens) (UniProt P10253) (assay: qHTS Assay for Inhibitors of Human alpha-Glucosidase as a Potential Chaperone Treatment of Pompe Disease). Conditions: purified human GAA, 4-MU-alpha-glucoside fluorescence; activity change, negative = inhibition: at 76.9 µM (top of the series) unless noted.
Method in brief: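 Activity normalized between no-enzyme (basal) and enzyme-only wells. Conditions: 4 nM human enzyme, 400 uM fluorogenic substrate, citrate/phosphate pH 5.0 with Tween-20, 20 min room temperature, compounds up to 77 uM.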
Potency is the fitted concentration of half-maximal effect; tags give direction and shape of the fitted curve.
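Throughout, for activity change, negative = inhibition: plate controls were uninhibited enzyme wells for no effect and no-enzyme background for full effect.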

Question: For CCOc1cc(S(=O)(=O)N2CC=C(c3ccc(F)cc3)CC2)c(OCC)cc1-n1cnnn1, which Potency is on record?
Answer: The Potency was inconclusive [inhibitor, full curve, poor fit].

Question: With OC(COc1ccc(OCc2ccccc2)cc1)CN1CCOCC1 (stereo unspecified) as the compound, how does the Potency read?
Answer: Its Potency is inconclusive [inhibitor, full curve, poor fit].

Question: With COC(=O)C(C(=O)OC)=C(/C=C/C=C/N(C)C)N(C)C as the compound, how does the Potency read?
Answer: Its Potency is inconclusive [inhibitor, single point].

Question: For CC(=O)N(C(C)=O)c1c(N2CCCC2)c2ccccc2oc1=O, which activity change, negative = inhibition is on record?
Answer: The activity change, negative = inhibition was inconclusive: 12.9% [activator].

Question: Which Potency does the source give for Cc1ccc(C(=O)CSc2cc(C)nc(SCC(=O)c3ccccc3)n2)cc1 here?
Answer: Its Potency is inconclusive [inhibitor, full curve, poor fit].

Question: Which Potency does the source give for Cc1nn(C)c(C)c1NC(=O)c1cc2nc(-c3ccco3)cc(C(F)(F)F)n2n1 here?
Answer: The Potency was inconclusive [inhibitor, full curve, poor fit].

Question: With CC1(C)CC(=O)CC2(C1)NCC(c1ccccc1Cl)c1c2[nH]c2ccccc12 (stereo unspecified) as the compound, how does the Potency read?
Answer: Its Potency is inconclusive [inhibitor, single point].

Question: For COC(=O)C(NC(=O)c1ccco1)(Nc1nc(C)cs1)C(F)(F)F (stereo unspecified), which Potency is on record?
Answer: The Potency was inconclusive [inhibitor, single point].

Question: Which Potency does the source give for Cc1ccc(C2CC(=O)N(c3ccc(F)cc3)C3=C2C(=O)CCC3)cc1 (stereo unspecified) here?
Answer: Its Potency is inconclusive [inhibitor, single point].

Question: For CCc1nc(N2CCCC2)c(C#N)c2c1CCCC2, which Potency is on record?
Answer: Its Potency is inconclusive [activator, single point].

Question: CCOC(=O)CN=C1CC(C)(C)CC2=C1Sc1ncnc(N(C)C)c1N2 was tested. Which Potency did it give?
Answer: The Potency was “inactive”.

Question: For Cc1ccc(C2C3CN(C(C)C)CC=C3C(C#N)=C(N)C2(C#N)C#N)cc1 (stereo unspecified), which Potency is on record?
Answer: The Potency was inconclusive [activator, single point].

Question: How did the Potency turn out when Brc1ccc(-c2nn3c(-c4ccncc4)nnc3s2)o1 was run?
Answer: Its Potency is inconclusive [inhibitor, partial curve].

Question: Which Potency does the source give for CCc1ccc2c(c1)CCCN2C(=O)c1ccccc1C(=O)O here?
Answer: The Potency was inconclusive [activator, full curve, poor fit].

Question: For C=CCn1c(C)cc(C(=O)CSc2nnc(NC(C)C)s2)c1C, which activity change, negative = inhibition is on record?
Answer: The activity change, negative = inhibition was inconclusive: -20.8% [inhibitor].

Question: For COc1ccccc1N(C)S(=O)(=O)c1ccc(C(=O)Nc2nc(C)cs2)cc1, which activity change, negative = inhibition is on record?
Answer: The activity change, negative = inhibition was inconclusive: -16.2% [inhibitor].

Question: Which Potency does the source give for CC(NC(=O)C1CCC1)c1ccc(Cl)cc1 (stereo unspecified) here?
Answer: The Potency was inconclusive [inhibitor, partial curve, poor fit].

Question: How did the Potency turn out when COCc1cc(Sc2ccc(Cl)cc2Cl)nc(-c2ccccc2)n1 was run?
Answer: The Potency was inconclusive [inhibitor, single point].

Question: Which Potency does the source give for CCOC(=O)c1sc2c(c1C)C(c1cccs1)C1=C(CCCC1=O)N2 (stereo unspecified) here?
Answer: Its Potency is inconclusive [activator, partial curve].

Question: How did the Potency turn out when COc1cc(C(=O)OCC(=O)Nc2cc(-c3cc(C)c(C)cc3C)nn2-c2ccccc2)cc(OC)c1OC was run?
Answer: The Potency was inconclusive [inhibitor, single point].

Question: CC(=O)Nc1ccc(S(=O)(=O)N(C)S(=O)(=O)c2ccc(F)cc2)cc1 was tested. Which Potency did it give?
Answer: The Potency was inconclusive [inhibitor, partial curve, poor fit].

Question: With Cc1cc2nc(-c3ccc(SCc4ccc(C(=O)O)cc4)nc3)[nH]c2cc1C as the compound, how does the Potency read?
Answer: Its Potency is inconclusive [inhibitor, partial curve, poor fit].

Question: For CCC(C(=O)N1CCN(C(=O)c2ccco2)CC1)c1ccccc1 (stereo unspecified), which activity change, negative = inhibition is on record?
Answer: The activity change, negative = inhibition was inconclusive: -15.3% [inhibitor].

Question: Which Potency does the source give for COc1cc(/C=C2/NC(=O)N(Cc3ccccc3F)C2=O)ccc1Oc1ccc([N+](=O)[O-])cn1 here?
Answer: The Potency was “inactive”.

Question: Which Potency does the source give for CCc1c(C)nc2ncnn2c1N1CCC(C(=O)Nc2cccc(C(C)=O)c2)CC1 here?
Answer: The Potency was inconclusive [inhibitor, full curve, poor fit].

Question: Which activity change, negative = inhibition does the source give for CCOc1c(CNc2nnnn2C)cccc1OC here?
Answer: Its activity change, negative = inhibition is inconclusive: 12.8% [activator].

Question: Which Potency does the source give for CCOC(=O)c1sc(=S)n(C)c1NC(=O)c1ccccc1C here?
Answer: Its Potency is inconclusive [inhibitor, partial curve].

Question: Which activity change, negative = inhibition does the source give for COc1ccccc1N(CC(=O)NCc1ccc(F)cc1)C(=O)CCC(=O)Nc1ccccn1 here?
Answer: The activity change, negative = inhibition was inconclusive: 19.1% [activator].

Question: O=C(O)CC1(CC(=O)NCc2ccccn2)CCCCC1 was tested. Which Potency did it give?
Answer: The Potency was inconclusive [inhibitor, full curve, poor fit].

Question: Which activity change, negative = inhibition does the source give for CC1(C)CC(N=c2cc(-c3ccccc3)oc3ccc(Cl)cc23)CC(C)(C)N1 here?
Answer: The activity change, negative = inhibition was inconclusive: -15.1% [inhibitor].

Question: CCOc1ccc2noc3c2c1C(=O)c1ccccc1-3 was tested. Which Potency did it give?
Answer: Its Potency is inconclusive [inhibitor, full curve, poor fit].

Question: Which Potency does the source give for COc1ccc(C2C3CCCCC3(O)CCN2C(=O)c2cccs2)cc1 (stereo unspecified) here?
Answer: The Potency was inconclusive [inhibitor, single point].

Question: COc1ccccc1N(CC(=O)N/N=C/c1c(O)ccc2ccccc12)S(C)(=O)=O was tested. Which Potency did it give?
Answer: The Potency was inconclusive [inhibitor, single point].

Question: CCc1cc(=O)oc2c(C)c(OCC(=O)N3CCCc4ccccc43)ccc12 was tested. Which Potency did it give?
Answer: The Potency was inconclusive [inhibitor, partial curve].

Question: With CCN1CCC(NC(=O)Nc2cc(Cl)ccc2OC)CC1 as the compound, how does the Potency read?
Answer: The Potency was inconclusive [inhibitor, partial curve].

Question: Which Potency does the source give for CS(=O)(=O)N(CC(=O)Nc1cc(Cl)ccc1Cl)c1ccccc1Cl here?
Answer: The Potency was inconclusive [inhibitor, single point].

Question: COc1ccc(NC(=S)NNC(=O)Cn2nc([N+](=O)[O-])cc2C)cc1 was tested. Which Potency did it give?
Answer: The Potency was “inactive”.

Question: For CCOc1ccc(S(=O)(=O)Nc2cc(Cl)ccc2O)cc1, which Potency is on record?
Answer: The Potency was “inactive”.

Question: O=C(CSCc1ccc(C(=O)O)cc1)Nc1ccccc1 was tested. Which Potency did it give?
Answer: The Potency was inconclusive [activator, partial curve, poor fit].

Question: CCOc1ccc(NC(=O)CS(=O)(=O)c2cn(CC)c3ccccc23)cc1 was tested. Which Potency did it give?
Answer: The Potency was inconclusive [inhibitor, single point].

Question: Which Potency does the source give for CCOC(=O)c1c(C)oc2c1cc(O)c1ccccc12 here?
Answer: The Potency was “inactive”.
